Lines with a small IC50 respond at low doses; where the fit passes the top or lowest dose, that dose stands as a limit. For AUC the same curve is integrated over the 256-fold range of doses and scaled to a fraction; it is 1 without any effect and falls as sensitivity rises. For part of these data: A top dose marked as inferred comes from the curve model; the source does not state it. For part of these data: Where an entry number is given, a second screen of the drug exists; the two often differ.
Assays:
Experiment in all cases: Viability of human cancer cell lines after 72 h of drug (GDSC screen)
Thapsigargin = compound: C/C=C(/C)C(=O)O[C@H]1C(C)=C2[C@H]([C@@H]1OC(=O)CCCCCCC)[C@@](C)(OC(C)=O)C[C@H](OC(=O)CCC)[C@@]1(O)[C@H]2OC(=O)[C@@]1(C)O [Thapsigargin]; settings: top dose 0.512 µM; top dose inferred
Protocol: (§1)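 Human cancer cell lines in 384-well plates, medium with 10% serum, drug for 72 h over a 256-fold dose range (nine 2-fold or five 4-fold steps up to the top dose). Adherent lines were fixed and stained with the nucleic acid dye Syto60, suspension lines read with resazurin; signal relative to control wells, capped at 0 and 100%. One two-parameter sigmoid per drug and line, fitted in a mixed model over all curves with the slope shared within a line.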

QL-X-138 = compound: C=CC(=O)Nc1cc(-n2c(=O)ccc3cnc4ccc(-c5cn[nH]c5)cc4c32)ccc1C [QL-X-138]; settings: top dose 10.24 µM; top dose inferred
Protocol: as §1

GSK269962A = compound: CCn1c(-c2nonc2N)nc2cnc(Oc3cccc(NC(=O)c4ccc(OCCN5CCOCC5)cc4)c3)cc21 [GSK269962A]; settings: top dose inferred
Protocol: as §1

MPS-1-IN-1 = compound: COc1cc(N2CCC(O)CC2)ccc1Nc1cc(Nc2ccccc2S(=O)(=O)C(C)C)c2cc[nH]c2n1 [MPS-1-IN-1]; settings: top dose 20 µM; top dose inferred
Protocol: as §1

(5Z)-7-Oxozeaenol = compound: COc1cc(O)c2c(c1)/C=C/C[C@H](O)[C@H](O)C(=O)/C=C\C[C@H](C)OC2=O [(5Z)-7-Oxozeaenol]; settings: top dose 10 µM; top dose inferred
Protocol: as §1

CP466722 = compound: COc1cc2ncnc(-n3nc(-c4ccccn4)nc3N)c2cc1OC [CP466722]; settings: top dose 16 µM; top dose inferred
Protocol: as §1

Zibotentan = compound: COc1nc(C)cnc1NS(=O)(=O)c1cccnc1-c1ccc(-c2nnco2)cc1 [Zibotentan]; settings: top dose 20 µM; top dose inferred
Protocol: as §1

ABT-888 = compound: C[C@]1(c2nc3c(C(N)=O)cccc3[nH]2)CCCN1 [ABT-888]; settings: top dose 5 µM; top dose inferred
Protocol: as §1

CMK = compound: Cc1ccc(-c2c(C(=O)CCl)n(CCCO)c3ncnc(N)c23)cc1 [CMK]; settings: top dose 4 µM; top dose inferred
Protocol: as §1

ABT-869 = compound: Cc1ccc(F)c(NC(=O)Nc2ccc(-c3cccc4[nH]nc(N)c34)cc2)c1 [ABT-869]; settings: top dose 1.024 µM; top dose inferred
Protocol: as §1

CHIR-99021 = compound: Cc1cnc(-c2cnc(NCCNc3ccc(C#N)cn3)nc2-c2ccc(Cl)cc2Cl)[nH]1 [CHIR-99021]
Protocol: as §1

Cytarabine = compound: Nc1ccn([C@@H]2O[C@H](CO)[C@@H](O)[C@@H]2O)c(=O)n1 [Cytarabine]; settings: top dose 2 µM
Protocol: as §1

KU-55933 = compound: O=c1cc(-c2cccc3c2Sc2ccccc2S3)oc(N2CCOCC2)c1 [KU-55933]; settings: top dose 10 µM
Protocol: as §1

[1] = top dose 2.5 µM, screen: GDSC drug entry 127
[2] = top dose 5 µM, screen: GDSC drug entry 1192
[3] = top dose 2.56 µM, screen: GDSC drug entry 154
[4] = top dose 10 µM, screen: GDSC drug entry 1241, top dose inferred

Cell Line	AUC (Thapsigargin)	IC50 (Thapsigargin) [µM]	AUC (QL-X-138)	IC50 (QL-X-138) [µM]	AUC (GSK269962A; [1])	IC50 (GSK269962A; [1]) [µM]	AUC (GSK269962A; [2])	IC50 (GSK269962A; [2]) [µM]	AUC (MPS-1-IN-1)	IC50 (MPS-1-IN-1) [µM]	AUC ((5Z)-7-Oxozeaenol)	IC50 ((5Z)-7-Oxozeaenol) [µM]	AUC (CP466722)	IC50 (CP466722) [µM]	AUC (Zibotentan)	IC50 (Zibotentan) [µM]	AUC (ABT-888)	IC50 (ABT-888) [µM]	AUC (CMK)	IC50 (CMK) [µM]	AUC (ABT-869)	IC50 (ABT-869) [µM]	AUC (CHIR-99021; [3])	IC50 (CHIR-99021; [3]) [µM]	AUC (CHIR-99021; [4])	IC50 (CHIR-99021; [4]) [µM]	AUC (Cytarabine)	IC50 (Cytarabine) [µM]	AUC (KU-55933)	IC50 (KU-55933) [µM]
SHP-77 (small cell lung carcinoma, semi-adherent)	0.604	0.0596	0.733	2.7	0.985	> 2.5	0.959	> 5	0.905	> 20	0.816	4.79	0.931	> 16	0.991	> 20	0.991	> 5	0.948	> 4	0.991	> 1.02	0.991	> 2.56	0.871	7.75	0.982	> 2	0.99	> 10
SK-ES-1 (Ewing sarcoma, semi-adherent)	0.175	0.00305	0.633	1.53	0.985	> 2.5	0.959	> 5	0.777	8.57	0.812	5.78	0.657	2.81	0.98	> 20	0.978	> 5	0.876	> 4	0.984	> 1.02	0.984	> 2.56	0.976	> 10	0.655	0.347	0.931	> 10
SK-MEL-1 (melanoma, suspension)	0.859	0.336	0.933	> 10.2	0.987	> 2.5	0.969	> 5	0.984	> 20	0.546	0.819	0.9	15.6	0.992	> 20	0.993	> 5	0.989	> 4	0.993	> 1.02	0.987	> 2.56	0.982	> 10	0.982	> 2	0.99	> 10
SK-MM-2 (myeloma, suspension)	0.567	0.0491	0.681	2.1	0.97	> 2.5	0.951	> 5	0.707	4.94	0.826	6.43	0.698	3.7	0.983	> 20	0.987	> 5	0.979	> 4	0.98	> 1.02	0.949	> 2.56	0.986	> 10	0.985	> 2	0.987	> 10
SK-N-FI (neuroblastoma, adherent)	0.687	0.106	0.893	> 10.2	0.978	> 2.5	0.931	> 5	0.924	> 20	0.428	0.399	0.829	9.85	0.989	> 20	0.987	> 5	0.892	> 4	0.989	> 1.02	0.987	> 2.56	0.988	> 10	0.903	> 2	0.968	> 10
SK-PN-DW (Ewing sarcoma, adherent)	0.286	0.00771	0.613	1.32	0.955	> 2.5	0.897	> 5	0.689	4.33	0.813	5.67	0.748	5.31	0.981	> 20	0.933	> 5	0.869	3.93	0.982	> 1.02	0.986	> 2.56	0.984	> 10	0.754	0.697	0.926	> 10
SLVL (B-cell lymphoma, suspension)	0.337	0.0109	0.55	0.886	0.931	> 2.5	0.926	> 5	0.822	12.6	0.835	7.12	0.749	5.46	0.97	> 20	0.983	> 5	0.828	2.67	0.725	0.29	0.981	> 2.56	0.945	> 10	0.983	> 2	0.972	> 10
SNU-C1 (large intestine, suspension)	0.794	0.373	0.872	> 10.2	0.98	> 2.5	0.853	> 5	0.907	> 20	0.663	2.2	0.895	> 16	0.979	> 20	0.976	> 5	0.974	> 4	0.978	> 1.02	0.958	> 2.56	0.97	> 10	0.94	> 2	0.912	> 10

— the supplement of paper PMC4967469
